Measurements from PubChem BioAssay AID596 (National Center for Advancing Translational Sciences (NCATS), 2007).
“And” between values parts separate entries of the source, which are not always exact repeats. Equal entries are not always repeated. Hit rate of the full screen: of about 71,000 compounds, about 1,400 (2%) were called active. The shares of active, inactive and inconclusive entries below differ from those in the screen. Calls come from the whole dose curve; as a rule, active = well fitted curve in the direction sought with a large enough effect; inconclusive = small, poorly fitted or top-dose-only effect; inactive = no such curve, though single readings can be large or run the other way. Potencies beside an inconclusive call are fits to weak or partial responses and may not hold up. A structure can be active in one record and inactive in another.

Target: Microtubule-associated protein tau (Homo sapiens) (UniProt P10636)
UniProt P10636, sequence (P10636 whole entry, looked up): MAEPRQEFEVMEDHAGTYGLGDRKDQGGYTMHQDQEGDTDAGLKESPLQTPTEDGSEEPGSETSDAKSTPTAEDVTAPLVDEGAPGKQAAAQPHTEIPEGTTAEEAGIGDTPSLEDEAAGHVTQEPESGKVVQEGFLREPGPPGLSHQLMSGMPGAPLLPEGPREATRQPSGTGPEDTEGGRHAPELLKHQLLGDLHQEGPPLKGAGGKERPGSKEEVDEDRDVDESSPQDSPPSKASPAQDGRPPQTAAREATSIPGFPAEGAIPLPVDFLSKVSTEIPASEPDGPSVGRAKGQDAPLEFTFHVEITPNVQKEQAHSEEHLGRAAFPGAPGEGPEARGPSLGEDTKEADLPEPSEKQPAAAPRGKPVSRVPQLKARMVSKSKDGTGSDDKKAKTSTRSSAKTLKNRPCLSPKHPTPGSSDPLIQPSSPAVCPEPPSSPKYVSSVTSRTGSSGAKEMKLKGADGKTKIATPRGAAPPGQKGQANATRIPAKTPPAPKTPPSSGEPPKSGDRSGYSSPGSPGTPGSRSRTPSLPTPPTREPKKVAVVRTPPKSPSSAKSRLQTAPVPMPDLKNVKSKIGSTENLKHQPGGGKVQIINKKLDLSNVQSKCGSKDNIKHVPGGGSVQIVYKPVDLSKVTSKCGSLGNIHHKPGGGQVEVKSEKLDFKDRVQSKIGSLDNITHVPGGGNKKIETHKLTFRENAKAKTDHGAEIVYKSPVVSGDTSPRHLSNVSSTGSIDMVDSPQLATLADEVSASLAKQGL
Assay: qHTS Assay for Tau Filament Binding;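 note: actives lower thioflavin S fluorescence by blocking filaments or displacing dye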
Details: recombinant tau filaments, thioflavin S fluorescence, 15 h, filaments grown with octadecylsulfate alongside compound; series mostly up to 57.1 µM
Method in brief: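 Assay mix: 1 uM His-tagged tau, 30 uM sodium octadecylsulfate, thioflavine S dye in HEPES/NaCl/DTT buffer. Compound is added prior to the inducer. Fluorescence after 15 h at 37 C.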
% is set by controls: 0 for no effect and ±100 for the full control effect; potency is the fitted concentration of half-maximal effect.

SMILES | Potency | activity change, negative = inhibition
Cc1ccc(C2c3c(oc4ccc(Cl)cc4c3=O)C(=O)N2CCCN2CCOCC2)o1 (stereo not drawn) | inconclusive: 31.6 µM [decreasing] | 
Cn1c(/C=N/c2nc3ccccc3[nH]2)nc2ccccc21 | inconclusive: 25.1 µM [decreasing] | 
O=C(Nc1nc(-c2ccc(Cl)s2)cs1)c1ccncc1 | active: 25.1 µM | 
O=C(Nc1nc(-c2cccs2)cs1)c1ccc(Cl)s1 | inactive | 
O=c1c(O)c(-c2ccc(O)c(O)c2)oc2cc(O)cc(O)c12 | active: 31.6 µM and inconclusive: 39.8 µM [decreasing] | 
COC(=O)Cc1cc(=O)n(-c2nc3ccccc3s2)[nH]1 | inconclusive: 31.6 µM [decreasing] | 
CCCSC1=N/C(=C\C=C\c2ccco2)C(=O)S1 | active: 2 µM | 
COc1ccc(Oc2ncc3nc(-c4ccc(Cl)cc4)c(=O)n(CCC#N)c3n2)cc1 | inconclusive: 3.98 µM [decreasing] | 
Nc1nnc(SCc2ccc(F)cc2Cl)s1 | active: 20 µM | 
N/N=C1/c2ccccc2N[C@H]1OC(=O)Nc1ccccc1 | active: 3.16 µM | 
CC(C)N=C=NC(C)C | inactive | 
CC(C)c1ccc2oc(-c3cc(N)ccc3O)nc2c1 | active: 3.16 µM | 
CCOC(=O)COn1c(=O)c(=O)n(O)c2ccccc21 | inconclusive: 6.31 µM [decreasing] | 
COc1cc2c(cc1OC)C(=O)N(C)CC2 | inconclusive: 39.8 µM [decreasing] | 
CN(C(=O)c1c(O)c2ccccc2n(C)c1=O)c1ccccc1 | inconclusive: 39.8 µM [decreasing] | 
CC(=O)Nc1c(C(=O)c2ccc(F)cc2)oc2ccccc12 | inconclusive: 31.6 µM [decreasing] | 
CN1C(=C2C(=O)OC(C)(C)OC2=O)Sc2ccccc21 | inactive | 
N#CCCn1c(=O)c(CCc2ccccc2)nc2cnc(N3CCOCC3)nc21 | inactive | 
COc1ccc(CNc2ncncc2-c2ccc(N(C)C)cc2)c(OC)c1 | inconclusive: 25.1 µM [decreasing] | 
COc1ccc2c(=O)c(C(=O)NCCc3ccc(OC)c(OC)c3)c[nH]c2c1 | inactive | 
CN1CCN(c2ccc(NC(=O)c3cccc(OCc4ccccc4)c3)cc2)CC1 | active: 7.94 µM | 

SMILES | Potency | activity change, negative = inhibition
O=S(=O)(/C=C/c1ccccc1)Nc1ccc(N2CCOCC2)cc1 | active: 25.1 µM | 
COc1ccc(NC(=O)c2cnn3c(C(F)(F)F)cc(-c4ccco4)nc23)cc1OC | active: 0.398 µM | 
CCCCC[C@H](O)C=C[C@H]1[C@H](O)CC(=O)[C@H]1CCCCCCC(=O)O | inconclusive: 39.8 µM [decreasing] | 
CC(=O)NCCNc1nc(-c2cccnc2)nc2ccccc12 | inactive | 
CN(Cc1ccco1)c1ncncc1-c1cccc(C#N)c1 | inactive | 
COc1ccc(-n2c(=O)c(CCc3ccccc3)nc3cnc(OC)nc32)cc1 | inconclusive: 31.6 µM [decreasing] | 
CN1CCC[C@@H]1CCO[C@](C)(c1ccccc1)c1ccc(Cl)cc1 | inconclusive: 39.8 µM [decreasing] | 
COc1ccc(NC(=O)c2oc3ccccc3c2NC(=O)C(C)(C)C)cc1 | active: 12.6 µM | 
NS(=O)(=O)c1cc(Br)c(N=Nc2ccc(O)c3ncccc23)c(Br)c1 | inconclusive: 3.98 µM [decreasing] | 
COc1ccccc1-c1cc(N)n(S(=O)(=O)c2ccc(F)c(C)c2)n1 | inactive | 
CCN1CCC[C@H]1CNC(=O)c1c(O)c(Cl)cc(Cl)c1OC | inconclusive: 39.8 µM [decreasing] | 
NCCC[C@@H](CC(=O)N[C@@H]1CCNC[C@H]1C(=O)N[C@H](CC(=O)N[C@@H](CCC(=O)O)CC(=O)O)Cc1ccccc1)NC(=O)C[C@H](CO)NC(=O)[C@@H]1CCCC[C@H]1N | inactive | 
O=C(O)c1cccnc1C(=O)O | inconclusive: 39.8 µM [decreasing] | 
CCN1C=C(C(=O)OC)C(c2cccc(C)c2)C(C(=O)OC)=C1 | inactive | 
CC(=O)Nc1nc(COc2ccccc2)cs1 | inactive | 
COc1ccc(OC)c(C2CC(=O)N3CN(c4cccc(Cl)c4)CSC3=C2C#N)c1 (stereo not drawn) | inactive | 
CN(C)CCNc1ccccn1 |  | inactive: 0.6% [at 11.4 µM]
COCCn1c(=O)cnc2cnc(N3CCN(C)CC3)nc21 | inactive | 
CSc1ccc(C2C(C#N)=C(N)Oc3cc4c(cc32)OCO4)cc1 (stereo not drawn) | inconclusive: 25.1 µM [decreasing] | 
COc1ccc(Oc2ncc3nc(-c4cccs4)c(=O)n(Cc4cccs4)c3n2)cc1 | inconclusive: 3.16 µM [decreasing] | 
Cc1ccc(C)c(N2CCN(C(=O)c3ccc(CS(=O)(=O)c4ccccc4C)o3)CC2)c1 | inactive | 

SMILES | Potency | activity change, negative = inhibition
C=C(C)COc1ccc(-c2n[nH]c(C)c2Oc2ccccc2OC)c(O)c1 | inconclusive: 25.1 µM [decreasing] | 
Cc1cc(C)n(-c2nc(C)nc(N)n2)n1 | inactive | 
CC(=O)Nc1ccc(C(=O)CS(=O)(=O)c2ccc(C)cc2)cc1 | inconclusive: 3.98 µM [decreasing] | 
O=C1C(SCCO)=C(SCCO)C(=O)c2ccccc21 | active: 5.01 µM | 
COc1ccc(Oc2ncc3nc(-c4ccc(F)cc4)c(=O)n(Cc4cccs4)c3n2)cc1 | inconclusive: 10 µM [decreasing] | 
CN(Cc1ccco1)c1ncncc1-c1ccccc1C(F)(F)F | inactive | 
COc1ccc(S(=O)(=O)NC2CCCCC2)cc1C | inactive | 
C=CC1=C(C)C2=NC1=CC1=NC(=CC3=NC(=CC4=NC(=C2)C(C)=C4CCC(=O)O)C(CCC(=O)O)=C3C)C(C=C)=C1C.[Zn] | active: 0.794 µM | 
Cc1ccc(-c2cc(C(F)(F)F)n3ncc(C(=O)N4CCN(C)CC4)c3n2)cc1 | active: 3.98 µM | 
CC1CCN(C(=O)C2CCN(CCCc3ccccc3)CC2)CC1 | inconclusive: 20 µM [decreasing] | 
CN(CC(=O)O)S(=O)(=O)c1cccs1 | inactive | 
CCCn1cnc2c(c1=O)c1nc3ccccc3nc1n2CCc1ccccc1 | inactive | 
N#Cc1nc(Cc2ccccc2)oc1NCc1ccccc1Cl | inconclusive: 20 µM [decreasing] | 
COC(=O)C1=C(C)NC(C)=C(C(=O)OCCN(C)Cc2ccccc2)[C@H]1c1cccc([N+](=O)[O-])c1 | active: 10 µM | 
CCOC(=O)Cc1nnc2c(Nc3ccc(Cl)cc3)nc3nonc3n12 | active: 15.8 µM | 
COc1cccc(Cn2c(=O)cnc3cnc(N(C)C)nc32)c1 | inactive | 
CCCCC(CC)C(=O)Nc1ccccc1C(=O)NC(C)C (stereo not drawn) | inactive | 
O=C(NC1CCCC1)c1sc(=S)n2c1[nH]c(=O)c1ccccc12 | inactive | 
CC(=O)N1CCN(c2ccc(NCc3ccc(C(C)C)cc3)cc2)CC1 | active: 25.1 µM | 
COc1ccc(CCC(=O)Nc2ccc(-c3noc(-c4ccc(OC)c(OC)c4)n3)cc2)cc1 | inactive | 
Cc1cc(O)c2c(c1)C(=O)c1cc(O)cc(O)c1C2=O | active: 15.8 µM and active: 3.98 µM and active: 2.51 µM | 

SMILES | Potency | activity change, negative = inhibition
Cc1ccc(NCc2nc3ccccc3n2C)cc1 | inactive | 
Cc1cc(C)c2c(N)c(C(=O)N3CCN(c4ncccn4)CC3)sc2n1 | inactive | 
Cc1cc(C)c2c(=O)n(CC(=O)NCCCN3CCN(c4ccccc4F)CC3)sc2n1 | inconclusive: 25.1 µM [decreasing] | 
COc1ccc(C2C(C(C)=O)=C(C)N=c3s/c(=C/c4ccc5c(c4)OCO5)c(=O)n32)cc1 (stereo not drawn) | inconclusive: 1 µM [decreasing] | 
CC[C@@]12CCCN3CCc4c(n(c5ccccc45)[C@](O)(C(=O)OC)C1)[C@H]32 | inconclusive: 39.8 µM [decreasing] | 
O=C(c1nc2nc(-c3ccc(Cl)cc3)cc(C(F)(F)F)n2n1)N1CCOCC1 | inconclusive: 39.8 µM [decreasing] | 
COc1cc(OC)c(C(=O)CCCCN2CCC3(CC2)NC(=O)NC3=O)cc1NS(=O)(=O)c1ccc(C(F)(F)F)cc1 | inconclusive: 39.8 µM [decreasing] | 
COC(=O)C1=C(C)NC(C)=C(C(=O)OC(C)C)C1c1cccc2nonc12 (stereo not drawn) | inconclusive: 39.8 µM [decreasing] | 
COc1cccc(Nc2nc(-c3sc(N)nc3C)cs2)c1 | active: 12.6 µM | 
COc1nnc(-c2ccc(N3CCCCC3)c(N)c2)c2ccccc12 | inconclusive: 31.6 µM [decreasing] | 
COC(=O)c1ccccc1NC(=O)c1cc2sccc2n1C | inconclusive: 25.1 µM [decreasing] | 
COC(=O)c1ccc2c(=O)[nH]c(CN3c4ccccc4CC3C)nc2c1 (stereo not drawn) | inconclusive: 39.8 µM [decreasing] | 
CC1=C/C(=C(/c2ccc(O)c(C)c2)c2ccccc2C(=O)O)C=CC1=O |  | inactive: 3.4% [at 11.4 µM]
CC(=O)c1cccc(-n2nnnc2SCC(=O)Nc2cccc(NC(=O)c3ccco3)c2)c1 | inconclusive: 25.1 µM [decreasing] | 
CN1CCN(c2ncc3nc(-c4cccc(C#N)c4)c(=O)n(Cc4ccc(F)cc4)c3n2)CC1 | inconclusive: 3.98 µM [decreasing] | 
O=S(=O)(Nc1ccc2nc(-c3ccc(Br)o3)[nH]c2c1)c1ccccc1 | inconclusive: 31.6 µM [decreasing] | 
N#Cc1ccc(N2CCN(C(=O)c3cccc(F)c3)CC2)c(F)c1 | inactive | 
Nc1ccc(-c2cc(N)n(-c3ccccc3)n2)cc1 | inconclusive: 10 µM [decreasing] | 
CC(C)c1ccc(CNc2ccc(N3CCOCC3)cc2)cc1 | active: 25.1 µM | 
CCOC(=O)COn1c(=O)c(-c2cccs2)[n+]([O-])c2ccccc21 | inconclusive: 10 µM [decreasing] | 
